This sample is rich in variants without activity.
B1: glmS ribozyme (parent)
chain: AUAAAAGCGCCAGAACUACAGAAAUGUAGUUGACGAGGAGGAGGUUUAUCGAAUUUUCGGCGGAUGCCUCCAAA

Tests used:
Details in all cases: with glucosamine-6-phosphate
[1] = variants of: B1; experiment: self-cleavage kobs at 40 uM GlcN6P; higher = faster cleavage; RNA array
Method in brief: (§1)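 Barcoded ribozyme variants, transcribed in situ by E. coli RNA polymerase on sequenced MiSeq chips, were followed via a hybridised Cy3 probe at 37 °C. Glucosamine-6-phosphate ranged from 40 μM to 10 mM in HEPES/KCl/Mg(OAc)2 buffer. kobs came from decay fits to per-tile medians, and kcat and KM from weighted Michaelis–Menten fits.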

[2] = variants of: B1; experiment: self-cleavage kobs at 640 uM GlcN6P; higher = faster cleavage; RNA array
Method in brief: as §1

[3] = variants of: B1; experiment: self-cleavage kobs at 160 uM GlcN6P; higher = faster cleavage; RNA array
Method in brief: as §1

[4] = variants of: B1; experiment: self-cleavage kobs at 2500 uM GlcN6P; higher = faster cleavage; RNA array
Method in brief: as §1

[5] = variants of: B1; experiment: self-cleavage kobs at 10000 uM GlcN6P; higher = faster cleavage; RNA array
Method in brief: as §1

AUAAAAGCUCCAGAACUACAGAAAUGUAGUUGACGAGGAGGUGGUUUAUCGAAUUUUCGGCGGAUGCCUCCAAA [G9U A42U]
< 1e-05 s⁻¹: self-cleavage kobs at 40 uM GlcN6P [1] | self-cleavage kobs at 640 uM GlcN6P [2] | self-cleavage kobs at 160 uM GlcN6P [3] | self-cleavage kobs at 2500 uM GlcN6P [4]

AUAAAAGCCCCAGAACUACAGAAAUGUAGUGGACGAGGAGGAGGUUUAUCGAACUUUCGGCGGAUGCCUCCAAA [G9C U31G U54C]
< 1e-05 s⁻¹: self-cleavage kobs at 40 uM GlcN6P [1]

AUAAAAGCCCCAGAACUACAGAAAUGUAGUCGACGAGGAGUAGGUUAAUCGAAUUUUCGGCGGAUGCCUCCAAA [G9C U31C G41U U47A]
< 1e-05 s⁻¹: self-cleavage kobs at 40 uM GlcN6P [1] | self-cleavage kobs at 640 uM GlcN6P [2] | self-cleavage kobs at 160 uM GlcN6P [3] | self-cleavage kobs at 10000 uM GlcN6P [5]

AUAAAAGCUCCAGAACUACAGAAAUGUAGUUGGAGAGGAGGAGGUUUAUCGAAUUUUCGGCGGAUGCUUACAAA [G9U A33G C34A C68U C70A]
< 1e-05 s⁻¹: self-cleavage kobs at 40 uM GlcN6P [1] | self-cleavage kobs at 10000 uM GlcN6P [5]

AUAAAAGCCCCAGAACUACAGAAAUGUAGUUGACGAGGAGGAGGUUUAUCGAAUCUUCGGCGGAUGCCUCCAAA [G9C U55C]
< 1e-05 s⁻¹: self-cleavage kobs at 40 uM GlcN6P [1] | self-cleavage kobs at 640 uM GlcN6P [2]

AUAAAAGCUUCAGAACUACAGAAAUGUAGUUGACGAGGAGGAGGUUUAUCGAAUUUUCGGCGGAUGCCUCCAAA [G9U C10U]
< 1e-05 s⁻¹: self-cleavage kobs at 40 uM GlcN6P [1] | self-cleavage kobs at 640 uM GlcN6P [2] | self-cleavage kobs at 160 uM GlcN6P [3] | self-cleavage kobs at 10000 uM GlcN6P [5]

AUAAAAGCCCCAGAACUACAGAAAUGUAGGUGACGAGGAGCAGGUUGAUCGAAUUUUCGGCGGAGGCCUCCAAA [G9C U30G G41C U47G U65G]
< 1e-05 s⁻¹: self-cleavage kobs at 40 uM GlcN6P [1] | self-cleavage kobs at 10000 uM GlcN6P [5]

AUAAAAGCUCCAGAACUACAGAAAUGUAGUUGGCGAGGAGGAUGUUUAUCGAAUUUUCGGCGGAUGCCUCCAAA [G9U A33G G43U]
< 1e-05 s⁻¹: self-cleavage kobs at 40 uM GlcN6P [1] | self-cleavage kobs at 10000 uM GlcN6P [5]

AUAAAAGCUCCAGAUCUACAGAAAUGUAGUUGACGAGGAGAAGGUUUAUCGAAUUUUCGGGGGAUGCCUCCAAA [G9U A15U G41A C61G]
< 1e-05 s⁻¹: self-cleavage kobs at 40 uM GlcN6P [1] | self-cleavage kobs at 10000 uM GlcN6P [5]

AUAAAAGCUCCAGGACUACAGAAAUGUAGUUGACGAGGAGGAGGUUUAUCGAAUUUUCCGCGGAUGCUUCCAAA [G9U A14G G59C C68U]
< 1e-05 s⁻¹: self-cleavage kobs at 40 uM GlcN6P [1] | self-cleavage kobs at 10000 uM GlcN6P [5]

AUAAAAGCCCCAGAACUACAGAAAUGUAGCUGACGAGGAGGAGGUUUAUCGAAUUUUCGGCGGAUGCCUCCAAA [G9C U30C]
< 1e-05 s⁻¹: self-cleavage kobs at 40 uM GlcN6P [1] | self-cleavage kobs at 640 uM GlcN6P [2] | self-cleavage kobs at 160 uM GlcN6P [3] | self-cleavage kobs at 10000 uM GlcN6P [5]

AUAAAAGCCCCAGAACUACAGAAAUGUAGUUGACGAGGAGGAGGUUUAUCGAAUUUUCGGCGGAGGCCUCCAAA [G9C U65G]
< 1e-05 s⁻¹: self-cleavage kobs at 40 uM GlcN6P [1] | self-cleavage kobs at 640 uM GlcN6P [2] | self-cleavage kobs at 160 uM GlcN6P [3] | self-cleavage kobs at 2500 uM GlcN6P [4] | self-cleavage kobs at 10000 uM GlcN6P [5]

AUAAAAGCUCCAGAUCUACAGAAAUGUAGUUGACGAGGAGGAGGUUUAUCGAAUUUUCGGCGGAGGCCUCCAAA [G9U A15U U65G]
< 1e-05 s⁻¹: self-cleavage kobs at 40 uM GlcN6P [1] | self-cleavage kobs at 640 uM GlcN6P [2] | self-cleavage kobs at 10000 uM GlcN6P [5]

AUAAAAGCCCCAGAACUACAGAAAUGUAGUUGACGAGGAGGAGGUUUAUCAAAUUUUCGGCGGAUGCCUCCAAA [G9C G51A]
< 1e-05 s⁻¹: self-cleavage kobs at 40 uM GlcN6P [1] | self-cleavage kobs at 10000 uM GlcN6P [5]

AUAAAAGCCCCAGAACUACAGAAAUGUAGUUGACGAGGAGGAUGUUUAUCGAAUUUUCGGCGGAUGCCUCCAAA [G9C G43U]
< 1e-05 s⁻¹: self-cleavage kobs at 40 uM GlcN6P [1] | self-cleavage kobs at 640 uM GlcN6P [2] | self-cleavage kobs at 160 uM GlcN6P [3] | self-cleavage kobs at 10000 uM GlcN6P [5]

AUAAAAGCCCCAGAACUACAGAAAUGUAGUUGACGAGGAGGAGGUAUAUCAAAUUUUCGGCGGAUGCCUCCAAA [G9C U46A G51A]
< 1e-05 s⁻¹: self-cleavage kobs at 40 uM GlcN6P [1]

AUAAAAGCCCCAGAACUACAGAAAUGUAGUUGACGAGGAGGAGGUAUAUCGAAUUUUCGGCGGAUGCCUCCAAA [G9C U46A]
< 1e-05 s⁻¹: self-cleavage kobs at 40 uM GlcN6P [1] | self-cleavage kobs at 640 uM GlcN6P [2] | self-cleavage kobs at 160 uM GlcN6P [3] | self-cleavage kobs at 10000 uM GlcN6P [5]

AUAAAAGCCCCAGAACUACAGAAAUGUAGUUGACGAGGAGGAGGUUUAUCGAAUUUUCGGCUGAUGCCUCCAAA [G9C G62U]
< 1e-05 s⁻¹: self-cleavage kobs at 40 uM GlcN6P [1] | self-cleavage kobs at 640 uM GlcN6P [2] | self-cleavage kobs at 160 uM GlcN6P [3] | self-cleavage kobs at 10000 uM GlcN6P [5]

AUAAAAGCUCCUGAACUACAGAAAUGUAGUUGACGAGGAGGAGGUUUAUCGAAUUUUCGGCGGAUGCCUCCAAA [G9U A12U]
< 1e-05 s⁻¹: self-cleavage kobs at 40 uM GlcN6P [1] | self-cleavage kobs at 640 uM GlcN6P [2] | self-cleavage kobs at 160 uM GlcN6P [3] | self-cleavage kobs at 2500 uM GlcN6P [4]

AUAAAAGCCCCAGAACUACAGAAAUGUAGUUGACGAGGAAGAGGUUUAUAGAAUUUUCGGCGGAUGCCUCCAAA [G9C G40A C50A]
< 1e-05 s⁻¹: self-cleavage kobs at 40 uM GlcN6P [1]

AUAAAAGCCCCAGAACUACAGAAAUGUAGUUGACGAGGAGGAGGUUUAUCGAAUUUCCGGCGGAUGCCUCCAAA [G9C U57C]
< 1e-05 s⁻¹: self-cleavage kobs at 40 uM GlcN6P [1] | self-cleavage kobs at 640 uM GlcN6P [2] | self-cleavage kobs at 160 uM GlcN6P [3] | self-cleavage kobs at 2500 uM GlcN6P [4] | self-cleavage kobs at 10000 uM GlcN6P [5]

AUAAAAGCUCCAGAACUACAGAAAUGUAGUUGACGAGGAGGAGGUUUAUCGAAUUUUCGGCGGCUGCCUCCAAA [G9U A64C]
< 1e-05 s⁻¹: self-cleavage kobs at 40 uM GlcN6P [1] | self-cleavage kobs at 640 uM GlcN6P [2] | self-cleavage kobs at 160 uM GlcN6P [3] | self-cleavage kobs at 10000 uM GlcN6P [5]

AUAAAAGCCCCAGAACUACAGAAAUGUAGUUGACGAGGAGGAGGUUUAUCGAAUUUUCGGCGAAUGCCUACAAA [G9C G63A C70A]
< 1e-05 s⁻¹: self-cleavage kobs at 40 uM GlcN6P [1] | self-cleavage kobs at 640 uM GlcN6P [2] | self-cleavage kobs at 160 uM GlcN6P [3] | self-cleavage kobs at 2500 uM GlcN6P [4] | self-cleavage kobs at 10000 uM GlcN6P [5]

AUAAAAGCUCCCGAACUACAGAAAUGUAGUUGACGUGGAGGAGGUUUAUCGAAUUUACGGCGGAUGCAUCCAAA [G9U A12C A36U U57A C68A]
< 1e-05 s⁻¹: self-cleavage kobs at 40 uM GlcN6P [1] | self-cleavage kobs at 640 uM GlcN6P [2] | self-cleavage kobs at 2500 uM GlcN6P [4] | self-cleavage kobs at 10000 uM GlcN6P [5]

Source: the supplement of paper PMC7125110
